Source: patent US20170081412A1 (MITSUBISHI TANABE PHARMA, published 2017)

Key:
[1] = molecular target: T1, recombinant human glycosylated IL-17A (produced in-house in HEK EBNA cells) (human, UniProt Q16552 24-155, glycosylated (sites not given); biotinylated with NHS-PEO4-biotin in the lysate ELISA); experiment: SPR (BIAcore T200), 2000 RU glycosylated IL-17A amine-coupled on CM5 chip, monomeric fynomer injected
[2] = molecular target: T1, recombinant human glycosylated IL-17A …; experiment: cell-based or functional assay
[3] = molecular target: T1, recombinant human glycosylated IL-17A …; experiment: cell-based or functional assay; remark: listed apart in the source
[4] = molecular target: T2, human IL-6R on the surface of HEK Blue IL-6 cells (human, UniProt P08887 20-468); experiment: flow cytometry: HEK-Blue IL-6 cells (IL-6R+), drug titrated about 0.005-300 nM, detected with anti-human IgG-Alexa488
T2 construct: HEK Blue IL-6 cells (Invivogen); also called cell surface IL-6R; HEK-Blue-IL6 cells (IL6R+)
T2 sequence: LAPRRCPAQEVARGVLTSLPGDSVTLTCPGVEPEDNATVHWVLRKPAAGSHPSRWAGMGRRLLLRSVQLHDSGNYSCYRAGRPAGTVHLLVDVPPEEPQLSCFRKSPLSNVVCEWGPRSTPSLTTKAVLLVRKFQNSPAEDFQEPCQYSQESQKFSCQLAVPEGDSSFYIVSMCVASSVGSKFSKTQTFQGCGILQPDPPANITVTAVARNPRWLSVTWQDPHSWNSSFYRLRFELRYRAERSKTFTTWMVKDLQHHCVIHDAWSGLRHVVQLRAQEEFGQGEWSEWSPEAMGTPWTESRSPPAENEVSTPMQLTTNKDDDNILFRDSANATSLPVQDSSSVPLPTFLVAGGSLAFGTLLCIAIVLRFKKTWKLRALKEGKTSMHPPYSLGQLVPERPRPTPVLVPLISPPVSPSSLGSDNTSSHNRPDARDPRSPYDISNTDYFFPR

[5] = molecular target: T3, recombinant human IL-17A (human, UniProt Q16552 24-155, limits assumed); experiment: SPR (representative sensorgram with fit): antibody captured on an amine-coupled anti-human antibody (GLM chip), recombinant human IL-17A flowed as analyte
T3 construct: In the flow cytometry assay it was biotinylated; also called soluble IL-17A
From the text: (§1) To determine the affinity and kinetic parameters of FynomAb binding to human IL-17A and human IL-6R, an anti-human antibody was amine coupled to a GLM chip.

[6] = molecular target: T3, recombinant human IL-17A; experiment: dual-binding sandwich ELISA: human IL-17A coated, FynomAb titrated 50-0.0032 nM in PBS (day 0), His-tagged human IL-6R added, anti-His-HRP
[7] = molecular target: T2, human IL-6R on the surface of HEK Blue …; experiment: flow cytometry, simultaneous binding: drug titrated on HEK-Blue IL-6 cells (IL-6R+), cell-bound drug detected with biotinylated IL-17A and streptavidin-APC
[8] = molecular target: T3, recombinant human IL-17A; experiment: SPR, binder captured by anti-human antibody on GLM chip, IL-17A as analyte; average of 5 experiments; column head prints nM, value taken as M
From the text: as §1

[9] = molecular target: T4, recombinant human IL-6R (human, UniProt P08887 20-365); experiment: SPR (representative sensorgram with fit): antibody captured on an amine-coupled anti-human antibody (GLM chip), recombinant human IL-6R flowed as analyte
T4 construct: The sandwich ELISA used a His-tagged form; also called soluble IL-6R; His-tagged human IL-6R
T4 sequence: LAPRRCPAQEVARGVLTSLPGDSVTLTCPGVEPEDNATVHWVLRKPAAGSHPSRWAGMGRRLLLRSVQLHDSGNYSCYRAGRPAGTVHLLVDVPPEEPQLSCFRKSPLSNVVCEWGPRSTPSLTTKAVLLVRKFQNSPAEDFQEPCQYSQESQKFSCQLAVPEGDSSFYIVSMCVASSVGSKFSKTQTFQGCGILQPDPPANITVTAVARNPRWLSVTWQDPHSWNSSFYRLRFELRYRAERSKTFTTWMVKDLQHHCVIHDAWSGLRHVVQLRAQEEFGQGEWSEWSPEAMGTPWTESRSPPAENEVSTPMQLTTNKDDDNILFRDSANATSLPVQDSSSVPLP
From the text: as §1

[10] = molecular target: T4, recombinant human IL-6R; experiment: SPR, binder captured by anti-human antibody on GLM chip, IL-6R as analyte; average of 6 experiments
From the text: as §1

[11] = molecular target: T4, recombinant human IL-6R; experiment: SPR, binder captured by anti-human antibody on GLM chip, IL-6R as analyte; average of 6 experiments; column head prints nM, value taken as M
From the text: as §1

[12] = molecular target: T3, recombinant human IL-17A; experiment: SPR, binder captured by anti-human antibody on GLM chip, IL-17A as analyte; average of 5 experiments
From the text: as §1

[13] = molecular target: T4, recombinant human IL-6R; experiment: SPR, binder captured by anti-human antibody on GLM chip, IL-6R as analyte; average of 2 experiments; column head prints nM, value taken as M
From the text: as §1

[14] = molecular target: T3, recombinant human IL-17A; experiment: SPR, binder captured by anti-human antibody on GLM chip, IL-17A as analyte; average of 2 experiments; column head prints nM, value taken as M
From the text: as §1

[15] = molecular target: T3, recombinant human IL-17A; experiment: cell-based or functional assay
[16] = molecular target: T3, recombinant human IL-17A; experiment: SPR, binder captured by anti-human antibody on GLM chip, IL-17A as analyte; average of 2 experiments
From the text: as §1

[17] = molecular target: T4, recombinant human IL-6R; experiment: SPR, binder captured by anti-human antibody on GLM chip, IL-6R as analyte; average of 2 experiments
From the text: as §1

[18] = molecular target: T2, human IL-6R on the surface of HEK Blue …; experiment: flow cytometry: HEK-Blue IL-6 cells (IL-6R+), drug titrated about 0.005-300 nM, detected with anti-human IgG-Alexa488; remark: listed apart in the source
[19] = molecular target: T3, recombinant human IL-17A; experiment: dual-binding sandwich ELISA: human IL-17A coated, FynomAb titrated 50-0.0032 nM in PBS (day 0), His-tagged human IL-6R added, anti-His-HRP; remark: listed apart in the source
[20] = molecular target: T2, human IL-6R on the surface of HEK Blue …; experiment: flow cytometry, simultaneous binding: drug titrated on HEK-Blue IL-6 cells (IL-6R+), cell-bound drug detected with biotinylated IL-17A and streptavidin-APC; remark: listed apart in the source
[21] = molecular target: T2, human IL-6R on the surface of HEK Blue …; experiment: flow cytometry: HEK-Blue IL-6 cells (IL-6R+), drug titrated about 0.005-300 nM, detected with anti-human IgG-Alexa488; remark: listed apart in the source
[22] = molecular target: T2, human IL-6R on the surface of HEK Blue …; experiment: flow cytometry, simultaneous binding: drug titrated on HEK-Blue IL-6 cells (IL-6R+), cell-bound drug detected with biotinylated IL-17A and streptavidin-APC; remark: listed apart in the source

T3 sequence (Q16552 24-155 limits assumed): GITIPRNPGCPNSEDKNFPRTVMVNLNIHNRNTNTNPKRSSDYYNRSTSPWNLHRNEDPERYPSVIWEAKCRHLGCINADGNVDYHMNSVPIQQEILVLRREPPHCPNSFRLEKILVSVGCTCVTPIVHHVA

B1: 11L10-A05 (designed binder)
chain: GVTLFVALYDYSSRGVLDLSFHKGEKFQILSTHEYEDWWEARSLTTGETGYIPSNYVAPVDSIQ
notes: Fyn SH3-derived fynomer
- Kd [1]: 7 nM
- IC50 value, IL-6 production by human dermal fibroblasts stimulated with glycosylated IL-17A and TNFα [2]: 28 nM

B2: 1L3-B09 (designed binder)
chain: B1 chain with S12A, S13N, R14H, V16N, L17R
notes: Fyn SH3-derived fynomer; also called 1L3-B9
- Kd [1]: 245 nM
- IC50 value, IL-6 production by human dermal fibroblasts stimulated with glycosylated IL-17A and TNFα [2]: 300 nM

B3: 11L0-C06 (designed binder)
chain: B1 chain with S12K, S13Q, R14K, V16H
notes: Fyn SH3-derived fynomer; also called 11L0-C6
- Kd [1]: 7 nM
- IC50 value, IL-6 production by human dermal fibroblasts stimulated with glycosylated IL-17A and TNFα [2]: 35 nM

B4: 11L5-B06 (designed binder)
chain: B1 chain with S13A, V16Q
notes: Fyn SH3-derived fynomer
- Kd [1]: 12 nM
- IC50 value, IL-6 production by human dermal fibroblasts stimulated with glycosylated IL-17A and TNFα [2]: 43 nM

B5: 11L6-F03 (designed binder)
chain: B1 chain with S12D, S13K, R14L, G15S, V16A
notes: Fyn SH3-derived fynomer
- Kd [1]: 11 nM
- IC50 value, IL-6 production by human dermal fibroblasts stimulated with glycosylated IL-17A and TNFα [2]: 63 nM

B6: 11L9-C09 (designed binder)
chain: B1 chain with S12E, R14V, G15S, V16W, L17S
notes: Fyn SH3-derived fynomer
- Kd [1]: 11 nM
- IC50 value, IL-6 production by human dermal fibroblasts stimulated with glycosylated IL-17A and TNFα [2]: 32 nM

B7: 11L11-A09 (designed binder)
chain: B1 chain with S13R, R14K, G15S, V16N
notes: Fyn SH3-derived fynomer
- Kd [1]: 24 nM
- IC50 value, IL-6 production by human dermal fibroblasts stimulated with glycosylated IL-17A and TNFα [3]: 66 nM

B8: COVA803 (bispecific antibody, human IgG1, kappa)
heavy: QVQLQESGPGLVRPSQTLSLTCTVSGYSITSDHAWSWVRQPPGRGLEWIGYISYSGITTYNPSLKSRVTMLRDTSKNQFSLRLSSVTAADTAVYYCARSLARTTAMDYWGQGSLVTVSSASTKGPSVFPLAPSSKSTSGGTAALGCLVKDYFPEPVTVSWNSGALTSGVHTFPAVLQSSGLYSLSSVVTVPSSSLGTQTYICNVNHKPSNTKVDKKV[sequence of human IgG1 Fc omitted]GGGSGGGGSGGGGSGVTLFVALYDYSARGQLDLSFHKGEKFQILSTHEYEDWWEARSLTTGETGYIPSNYVAPVDSIQ
light: DIQMTQSPSSLSASVGDRVTITCRASQDISSYLNWYQQKPGKAPKLLIYYTSRLHSGVPSRFSGSGSGTDFTFTISSLQPEDIATYYCQQGNTLPYTFGQGTKVEIKRTVAAPSVFIFPPSDEQLKSGTASVVCLLNNFYPREAKVQWKVDNALQSGNSQESVTEQDSKDSTYSLSSTLTLSKADYEKHKVYACEVTHQGLSSPVTKSFNRGEC
notes: made in CHO cells; also called 803 in-house
- EC50 (read off the curve) [4]: ~1 nM
- Kd [5]: 0.294 nM
- koff [5]: 0.00154 s⁻¹
- kon [5]: 5.22e+06 M⁻¹ s⁻¹
- EC50 (read off the curve) [6]: ~3 nM
- EC50 (read off the curve) [7]: ~1 nM
- Kd [8]: 0.0689 nM
- Kd [9]: 1.08 nM
- koff [9]: 0.00028 s⁻¹
- kon [9]: 260000 M⁻¹ s⁻¹
- koff [10]: 0.000219 s⁻¹
- kon [10]: 363000 M⁻¹ s⁻¹
- Kd [11]: 0.604 nM
- koff [12]: 0.000357 s⁻¹
- kon [12]: 4.96e+06 M⁻¹ s⁻¹

B9: COVA805 (bispecific antibody, human IgG1, kappa)
heavy: QVQLQESGPGLVRPSQTLSLTCTVSGYSITSDHAWSWVRQPPGRGLEWIGYISYSGITTYNPSLKSRVTMLRDTSKNQFSLRLSSVTAADTAVYYCARSLARTTAMDYWGQGSLVTVSSASTKGPSVFPLAPSSKSTSGGTAALGCLVKDYFPEPVTVSWNSGALTSGVHTFPAVLQSSGLYSLSSVVTVPSSSLGTQTYICNVNHKPSNTKVDKKV[sequence of human IgG1 Fc omitted]GGGSGGGGSGGGGSGVTLFVALYDYESVSWSDLSFHKGEKFQILSTHEYEDWWEARSLTTGETGYIPSNYVAPVDSIQ
light: B8 light
notes: made in CHO cells; also called 805 in-house
- Kd [13]: 0.314 nM
- Kd [14]: 0.143 nM
- LogIC50, IL-17A-induced GROα release by HT-29 cells, FIG. 8C (stable CHO pool, mouse PK lot) [15]: 0.28
- Kd [5]: 0.278 nM
- koff [5]: 0.00114 s⁻¹
- kon [5]: 4.09e+06 M⁻¹ s⁻¹
- koff [16]: 0.000581 s⁻¹
- kon [16]: 3.53e+06 M⁻¹ s⁻¹
- koff [17]: 0.000178 s⁻¹
- kon [17]: 613000 M⁻¹ s⁻¹
- EC50 (read off the curve) [18]: ~0.7 nM
- Kd [9]: 0.419 nM
- koff [9]: 0.000198 s⁻¹
- kon [9]: 474000 M⁻¹ s⁻¹
- EC50 (read off the curve) [19]: ~2 nM
- EC50 (read off the curve) [20]: ~0.6 nM

B10: COVA802 (bispecific antibody, human IgG1, kappa)
heavy: QVQLQESGPGLVRPSQTLSLTCTVSGYSITSDHAWSWVRQPPGRGLEWIGYISYSGITTYNPSLKSRVTMLRDTSKNQFSLRLSSVTAADTAVYYCARSLARTTAMDYWGQGSLVTVSS[sequence of human IgG1 constant region omitted]
light: DIQMTQSPSSLSASVGDRVTITCRASQDISSYLNWYQQKPGKAPKLLIYYTSRLHSGVPSRFSGSGSGTDFTFTISSLQPEDIATYYCQQGNTLPYTFGQGTKVEIKRTVAAPSVFIFPPSDEQLKSGTASVVCLLNNFYPREAKVQWKVDNALQSGNSQESVTEQDSKDSTYSLSSTLTLSKADYEKHKVYACEVTHQGLSSPVTKSFNRGECGGGGSGGGGSGGGGSGVTLFVALYDYKQKGHLDLSFHKGEKFQILSTHEYEDWWEARSLTTGETGYIPSNYVAPVDSIQ
notes: made in CHO cells; also called 802 in-House
- EC50 (read off the curve) [21]: ~0.7 nM
- Kd [9]: 0.351 nM
- EC50 (read off the curve) [22]: ~0.8 nM
- Kd [11]: 0.395 nM

Residue numbers refer to the chain shown, from its start. Like-named read-outs stand apart in the source and are kept apart here.
